From the supplement of paper PMC8728848
The list shows a part of the results.

Columns and labels:
Test in all cases: glycan array binding signal (z-score within array); higher = stronger binding
Conditions in all cases: glycan notation: IUPAC condensed, linker removed
[1] = target: Neu5Ac(a2-3)Gal(b1-4)GlcNAc(b1-6)GalNAc
Procedure, shortened: (§1)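 From the Consortium for Functional Glycomics database, 3228 arrays were curated, keeping only those whose protein sequence was available. Binding is given as a within-array Z-score averaged across arrays sharing a protein sequence and across linkers. Negative Z-scores can be read as non-binding.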

[2] = target: Neu5Ac(a2-3)Gal(b1-4)GlcNAc(b1-6)[Gal(b1-3)]GalNAc
Procedure, shortened: as §1

[3] = target: Neu5Ac(a2-3)Gal(b1-4)GlcNAc(b1-6)[Neu5Ac(a2-3)Gal(b1-3)]GalNAc
Procedure, shortened: as §1

[4] = target: Neu5Ac(a2-3)Gal(b1-4)GlcNAc6S
Procedure, shortened: as §1

[5] = target: Neu5Ac(a2-3)Gal(b1-4)[Fuc(a1-3)]GlcNAc
Procedure, shortened: as §1

[6] = target: Neu5Ac(a2-3)Gal(b1-4)[Fuc(a1-3)]GlcNAc(b1-2)Man
Procedure, shortened: as §1

[7] = target: Neu5Ac(a2-3)Gal(b1-4)[Fuc(a1-3)]GlcNAc(b1-3)Gal
Procedure, shortened: as §1

[8] = target: Neu5Ac(a2-3)Gal(b1-4)[Fuc(a1-3)]GlcNAc(b1-3)Gal(b1-4)GlcNAc
Procedure, shortened: as §1

[9] = target: Neu5Ac(a2-3)Gal(b1-4)[Fuc(a1-3)]GlcNAc(b1-3)Gal(b1-4)[Fuc(a1-3)]GlcNAc(b1-3)Gal(b1-4)[Fuc(a1-3)]GlcNAc
Procedure, shortened: as §1

[10] = target: Neu5Ac(a2-3)Gal(b1-4)[Fuc(a1-3)]GlcNAc(b1-3)GalNAc
Procedure, shortened: as §1

[11] = target: Neu5Ac(a2-3)Gal(b1-4)[Fuc(a1-3)]GlcNAc(b1-6)[Gal(b1-3)]GalNAc
Procedure, shortened: as §1

[12] = target: Neu5Ac(a2-3)Gal(b1-4)[Fuc(a1-3)]GlcNAc(b1-6)[Neu5Ac(a2-3)Gal(b1-3)]GalNAc
Procedure, shortened: as §1

[13] = target: Neu5Ac(a2-3)Gal(b1-4)[Fuc(a1-3)]GlcNAc6S
Procedure, shortened: as §1

[14] = target: Neu5Ac(a2-3)Gal6S(b1-4)GlcNAc
Procedure, shortened: as §1

[15] = target: Neu5Ac(a2-3)Gal6S(b1-4)[Fuc(a1-3)]GlcNAc
Procedure, shortened: as §1

Neu5Ac(a2-3)GalNAc = target: Neu5Ac(a2-3)GalNAc
Procedure, shortened: as §1

[16] = target: Neu5Ac(a2-3)GalNAc(b1-4)GlcNAc
Procedure, shortened: as §1

[17] = target: Neu5Ac(a2-3)[GalNAc(b1-4)]Gal(b1-4)Glc
Procedure, shortened: as §1

[18] = target: Neu5Ac(a2-3)[GalNAc(b1-4)]Gal(b1-4)GlcNAc
Procedure, shortened: as §1

[19] = target: Neu5Ac(a2-3)[GalNAc(b1-4)]Gal(b1-4)GlcNAc(b1-3)GalNAc
Procedure, shortened: as §1

[20] = target: Neu5Ac(a2-3)[Neu5Ac(a2-6)]GalNAc
Procedure, shortened: as §1

Neu5Ac(a2-6)Gal = target: Neu5Ac(a2-6)Gal
Procedure, shortened: as §1

[21] = target: Neu5Ac(a2-6)Gal(b1-3)GlcNAc(b1-3)[Gal(b1-4)GlcNAc(b1-6)]Gal(b1-4)Glc
Procedure, shortened: as §1

Neu5Ac(a2-6)Gal(b1-4)Glc = target: Neu5Ac(a2-6)Gal(b1-4)Glc
Procedure, shortened: as §1

[22] = target: Neu5Ac(a2-6)Gal(b1-4)GlcNAc
Procedure, shortened: as §1

[23] = target: Neu5Ac(a2-6)Gal(b1-4)GlcNAc(b1-2)Man
Procedure, shortened: as §1

[24] = target: Neu5Ac(a2-6)Gal(b1-4)GlcNAc(b1-2)Man(a1-3)Man(b1-4)GlcNAc(b1-4)GlcNAc
Procedure, shortened: as §1

[25] = target: Neu5Ac(a2-6)Gal(b1-4)GlcNAc(b1-2)Man(a1-3)[Gal(b1-4)GlcNAc(b1-2)Man(a1-6)]Man(b1-4)GlcNAc(b1-4)GlcNAc
Procedure, shortened: as §1

[26] = target: Neu5Ac(a2-6)Gal(b1-4)GlcNAc(b1-2)Man(a1-3)[GlcNAc(b1-2)Man(a1-6)]Man(b1-4)GlcNAc(b1-4)GlcNAc
Procedure, shortened: as §1

[27] = target: Neu5Ac(a2-6)Gal(b1-4)GlcNAc(b1-2)Man(a1-3)[GlcNAc(b1-4)][Neu5Ac(a2-6)Gal(b1-4)GlcNAc(b1-2)Man(a1-6)]Man(b1-4)GlcNAc(b1-4)GlcNAc
Procedure, shortened: as §1

[28] = target: Neu5Ac(a2-6)Gal(b1-4)GlcNAc(b1-2)Man(a1-3)[Man(a1-6)]Man(b1-4)GlcNAc(b1-4)GlcNAc
Procedure, shortened: as §1

B1: OGAA (protein)
chain: MVQKESQATLEERESELSSNPAASAGASLEPPAAPAPGEDNPAGAGGAAVAGAAGGARRFLCGVVEGFYGRPWVMEQRKELFRRLQKWELNTYLYAPKDDYKHRMFWREMYSVEEAEQLMTLISAAREYEIEFIYAISPGLDITFSNPKEVSTLKRKLDQVSQFGCRSFALLFADIDHNMCAADKEVFSSFAHAQVSITNEIYQYLGEPETFLFCPTEYCGTFCYPNVSQSPYLRTVGEKLLPGIEVLWTGPKVVSKEIPVESIEEVSKIIKRAPVIWDNIHANDYDQKRLFLGPYKGRSTELIPRLKGVLTNPNCEFEANYVAIHTLATWYKSNMNGVRKDVVMTDSEDSTVSIQIKLENEGSDEDIETDVLYSPQMALKLALTEWLQEFGVPHQY
[1]
  glycan array binding signal (z-score): -0.066
[2]
  glycan array binding signal (z-score): -0.107
[3]
  glycan array binding signal (z-score): -0.046
[4]
  glycan array binding signal (z-score): -0.095
[5]
  glycan array binding signal (z-score): -0.127
[6]
  glycan array binding signal (z-score): -0.097
[7]
  glycan array binding signal (z-score): -0.114
[8]
  glycan array binding signal (z-score): -0.006
[9]
  glycan array binding signal (z-score): -0.065
[10]
  glycan array binding signal (z-score): 0.017
[11]
  glycan array binding signal (z-score): -0.025
[12]
  glycan array binding signal (z-score): 0.007
[13]
  glycan array binding signal (z-score): -0.083
[14]
  glycan array binding signal (z-score): -0.047
[15]
  glycan array binding signal (z-score): 0.086
Neu5Ac(a2-3)GalNAc
  glycan array binding signal (z-score): -0.113
[16]
  glycan array binding signal (z-score): -0.098
[17]
  glycan array binding signal (z-score): -0.078
[18]
  glycan array binding signal (z-score): -0.106
[19]
  glycan array binding signal (z-score): -0.118
[20]
  glycan array binding signal (z-score): -0.129
Neu5Ac(a2-6)Gal
  glycan array binding signal (z-score): -0.077
[21]
  glycan array binding signal (z-score): -0.122
Neu5Ac(a2-6)Gal(b1-4)Glc
  glycan array binding signal (z-score): -0.12
[22]
  glycan array binding signal (z-score): -0.073
[23]
  glycan array binding signal (z-score): -0.038
[24]
  glycan array binding signal (z-score): -0.135
[25]
  glycan array binding signal (z-score): -0.073
[26]
  glycan array binding signal (z-score): -0.019
[27]
  glycan array binding signal (z-score): -0.117
[28]
  glycan array binding signal (z-score): -0.039
